No constants are given. Whether binding was seen depends on the method and setting. Binding seen in cells or lysates may run through a third protein. Some entries that bind do so weakly or less than the wild type. Where a sequence is shown, tags or fusion partners need not be part of it.
What was measured:
[1] = target: T1, N-terminally HA-tagged mRNF12 expressed from the endogenous locus (HA-RNF12 KI) (mouse) (UniProt Q9WTV7); test: co-IP; HA immunoprecipitation from lysate of HA-RNF12 KI mESCs (both proteins at endogenous level), IgG as negative control; overnight at 4 °C; washes with 500 mM NaCl; immunoblot for USP26 and HA
T1 sequence: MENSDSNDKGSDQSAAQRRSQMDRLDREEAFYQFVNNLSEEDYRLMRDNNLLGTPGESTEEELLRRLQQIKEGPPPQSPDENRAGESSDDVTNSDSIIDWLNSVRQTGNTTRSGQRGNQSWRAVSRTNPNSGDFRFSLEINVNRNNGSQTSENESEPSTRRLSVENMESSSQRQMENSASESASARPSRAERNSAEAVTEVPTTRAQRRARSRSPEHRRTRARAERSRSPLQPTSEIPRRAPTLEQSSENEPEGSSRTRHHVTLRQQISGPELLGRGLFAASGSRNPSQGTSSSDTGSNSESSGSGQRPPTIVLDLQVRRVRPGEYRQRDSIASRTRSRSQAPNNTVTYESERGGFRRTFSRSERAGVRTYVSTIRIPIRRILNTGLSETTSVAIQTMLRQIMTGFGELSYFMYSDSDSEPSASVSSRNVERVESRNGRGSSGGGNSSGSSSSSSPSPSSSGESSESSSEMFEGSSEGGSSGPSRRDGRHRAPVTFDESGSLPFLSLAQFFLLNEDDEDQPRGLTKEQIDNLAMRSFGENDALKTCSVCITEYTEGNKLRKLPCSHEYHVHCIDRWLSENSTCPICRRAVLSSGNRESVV

[2] = target: T2, HA-tagged mouse RNF12 wild type (HA-mRNF12 WT, 1-600) (mouse) (UniProt Q9WTV7); test: co-IP; HA immunoprecipitation from 1 mg lysate of transfected Rlim-/y mESCs, overnight at 4 °C; beads washed with lysis buffer containing 500 mM NaCl; immunoblot for FLAG and HA
T2 sequence: T1 sequence

[3] = target: T2, HA-tagged mouse RNF12 wild type (HA-mRNF12 WT, 1-600) (mouse); test: co-IP; FLAG (M2 agarose) immunoprecipitation from lysate of Rlim-/y mESCs co-expressing FLAG-mRNF12 WT and HA-mRNF12 WT or deletion mutants; overnight at 4 °C; washes with 500 mM NaCl; immunoblot for FLAG and HA

B1: endogenous mouse USP26 (enzyme, UniProt Q99MX1 1-835)
chain: MEPILINAQVQMWSAKAGMSKSRNALIETCVGKREVKLILYFSTGKIKTLQLHDNIKSVVLQTYGEDQNYLHLTFKNNDFLFVEKLTTTDARRLKRFLDKTSQGSIRPARSDERCGEPSTSAQELNGSGSSCETNSECFESPKESEMCMFRELSLLPSSSTFLHNVGLLENQFIKRKRFFSDLAKNEKQSNLKDSIRDFEANLVVCISNEKGKERNVREVDISKPGFGFPFETNYPEDSGVDVRDLNDLITKLFSPVLLETHCIENGLEWHEYMKTYLLYPEKLWQGLPNVGNTCYINVVLQSLCSIPLFINDLFNQGFPWIKAPKDDFNMLLMQLLVLKDIYNARFRQKLLIGITKALPIFGEIFAVDRQNDAHEFLSLCLVQLKETFQRVTMMWQSENDSGDFYLLKDIFADYATINKMPVCPVTNNFEFELLSSIFCKACGLTLFKGEPSRYLSINIPQGGKDMSIQSTLDLFFSAEELEHRCEKCLYNKSVSFHRFGRLPRVIIVHLKRYHFNESWVMKKDERPILVSKYLRLSCHCSKSTKPPPPLRPGEHVKNLDLLKPLEVLGSEILKLPFNSVRTSRSKGFETINITSNRESEAQSGKRVSEVLSGKVQQENSGKGDTAHIVGSELTKETEKLKKHEEEHRPSDLDSGSIREAQKYQQAEKCNEGRSDKQISLEALTQSRPKPISQEQTENLGKTTLSHTQDSSQSSQSSSDSSKSSRCSDDLDKKAKPTRKVDPTKLNKKEDNVYRLVNIINHIGNSPNGGHYINDAFDFKRQSWFTYSDLHVTRTQEDFVYRGRSSTGYVFFYMHNDIFEELLAKETQSTSTSKG
binding [1]: binds

B2: FLAG-tagged human USP29 (FLAG-hUSP29) (enzyme, UniProt Q9HBJ7 1-922)
chain: MISLKVCGFIQIWSQKTGMTKLKEALIETVQRQKEIKLVVTFKSGKFIRIFQLSNNIRSVVLRHCKKRQSHLRLTLKNNVFLFIDKLSYRDAKQLNMFLDIIHQNKSQQPMKSDDDWSVFESRNMLKEIDKTSFYSICNKPSYQKMPLFMSKSPTHVKKGILENQGGKGQNTLSSDVQTNEDILKEDNPVPNKKYKTDSLKYIQSNRKNPSSLEDLEKDRDLKLGPSFNTNCNGNPNLDETVLATQTLNAKNGLTSPLEPEHSQGDPRCNKAQVPLDSHSQQLQQGFPNLGNTCYMNAVLQSLFAIPSFADDLLTQGVPWEYIPFEALIMTLTQLLALKDFCSTKIKRELLGNVKKVISAVAEIFSGNMQNDAHEFLGQCLDQLKEDMEKLNATLNTGKECGDENSSPQMHVGSAATKVFVCPVVANFEFELQLSLICKACGHAVLKVEPNNYLSINLHQETKPLPLSIQNSLDLFFKEEELEYNCQMCKQKSCVARHTFSRLSRVLIIHLKRYSFNNAWLLVKNNEQVYIPKSLSLSSYCNESTKPPLPLSSSAPVGKCEVLEVSQEMISEINSPLTPSMKLTSESSDSLVLPVEPDKNADLQRFQRDCGDASQEQHQRDLENGSALESELVHFRDRAIGEKELPVADSLMDQGDISLPVMYEDGGKLISSPDTRLVEVHLQEVPQHPELQKYEKTNTFVEFNFDSVTESTNGFYDCKENRIPEGSQGMAEQLQQCIEESIIDEFLQQAPPPGVRKLDAQEHTEETLNQSTELRLQKADLNHLGALGSDNPGNKNILDAENTRGEAKELTRNVKMGDPLQAYRLISVVSHIGSSPNSGHYISDVYDFQKQAWFTYNDLCVSEISETKMQEARLHSGYIFFYMHNGIFEELLRKAENSRLPSTQAGVIPQGEYEGDSLYRPA
binding [2]: binds

B3: HA-tagged mouse RNF12 wild type (HA-mRNF12 WT, 1-600) (enzyme, UniProt Q9WTV7 1-600)
chain: T1 sequence
binding [3]: binds
